Test results reported in the supplement of paper PMC8728848.
The list shows a part of the results.

What was measured:
Assay in all cases: glycan array binding signal (z-score within array); higher = stronger binding
Details in all cases: glycan notation: IUPAC condensed, linker removed
[1] = target: Gal(b1-4)GlcNAc(b1-3)Gal(b1-4)GlcNAc(b1-6)[Gal(b1-3)]GalNAc
Method in brief: (§1)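 The binding signal is a Z-score computed within each array. Data were drawn from 3228 arrays in the Consortium for Functional Glycomics database, restricted to those with a known protein sequence. Scores were averaged over arrays of the same protein sequence at different concentrations or buffers, and over linkers, and negative values can be taken as non-binding.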

[2] = target: Gal(b1-4)GlcNAc(b1-3)Gal(b1-4)[Fuc(a1-3)]GlcNAc(b1-3)Gal(b1-4)[Fuc(a1-3)]GlcNAc
Method in brief: as §1

[3] = target: Gal(b1-4)GlcNAc(b1-3)GalNAc
Method in brief: as §1

[4] = target: Gal(b1-4)GlcNAc(b1-3)[Fuc(a1-3)GlcNAc(b1-6)]Gal(b1-4)Glc
Method in brief: as §1

[5] = target: Gal(b1-4)GlcNAc(b1-3)[Gal(b1-4)GlcNAc(b1-6)]Gal(b1-4)GlcNAc
Method in brief: as §1

[6] = target: Gal(b1-4)GlcNAc(b1-3)[GlcNAc(b1-6)]Gal(b1-4)GlcNAc
Method in brief: as §1

[7] = target: Gal(b1-4)GlcNAc(b1-6)Gal(b1-4)GlcNAc
Method in brief: as §1

[8] = target: Gal(b1-4)GlcNAc(b1-6)GalNAc
Method in brief: as §1

[9] = target: Gal(b1-4)GlcNAc(b1-6)[Gal(b1-3)]GalNAc
Method in brief: as §1

[10] = target: Gal(b1-4)GlcNAc(b1-6)[Gal(b1-4)GlcNAc(b1-3)]GalNAc
Method in brief: as §1

Gal(b1-4)GlcNAc6P = target: Gal(b1-4)GlcNAc6P
Method in brief: as §1

Gal(b1-6)Gal = target: Gal(b1-6)Gal
Method in brief: as §1

Gal3S(b1-3)GalNAc = target: Gal3S(b1-3)GalNAc
Method in brief: as §1

Gal3S(b1-3)GlcNAc = target: Gal3S(b1-3)GlcNAc
Method in brief: as §1

[11] = target: Gal3S(b1-3)[Fuc(a1-4)]GlcNAc
Method in brief: as §1

Gal3S(b1-4)Glc = target: Gal3S(b1-4)Glc
Method in brief: as §1

Gal3S(b1-4)Glc6S = target: Gal3S(b1-4)Glc6S
Method in brief: as §1

Gal3S(b1-4)GlcNAc = target: Gal3S(b1-4)GlcNAc
Method in brief: as §1

[12] = target: Gal3S(b1-4)[Fuc(a1-3)]Glc6S
Method in brief: as §1

[13] = target: Gal3S(b1-4)[Fuc(a1-3)]GlcNAc
Method in brief: as §1

[14] = target: Gal3S(b1-4)[Fuc(a1-3)]GlcNAc6S
Method in brief: as §1

Gal3S4S(b1-4)GlcNAc = target: Gal3S4S(b1-4)GlcNAc
Method in brief: as §1

Gal3S6S(b1-4)GlcNAc = target: Gal3S6S(b1-4)GlcNAc
Method in brief: as §1

Gal3S6S(b1-4)GlcNAc6S = target: Gal3S6S(b1-4)GlcNAc6S
Method in brief: as §1

Gal4S(b1-4)GlcNAc = target: Gal4S(b1-4)GlcNAc
Method in brief: as §1

Gal4S6S(b1-4)GlcNAc = target: Gal4S6S(b1-4)GlcNAc
Method in brief: as §1

Gal6P(b1-4)GlcNAc = target: Gal6P(b1-4)GlcNAc
Method in brief: as §1

Gal6S(b1-3)GlcNAc = target: Gal6S(b1-3)GlcNAc
Method in brief: as §1

Gal6S(b1-3)GlcNAc6S = target: Gal6S(b1-3)GlcNAc6S
Method in brief: as §1

Gal6S(b1-4)Glc = target: Gal6S(b1-4)Glc
Method in brief: as §1

Gal6S(b1-4)Glc6S = target: Gal6S(b1-4)Glc6S
Method in brief: as §1

Gal6S(b1-4)GlcNAc = target: Gal6S(b1-4)GlcNAc
Method in brief: as §1

Gal6S(b1-4)GlcNAc6S = target: Gal6S(b1-4)GlcNAc6S
Method in brief: as §1

GalNAc(a1-3)Gal = target: GalNAc(a1-3)Gal
Method in brief: as §1

GalNAc(a1-3)GalNAc = target: GalNAc(a1-3)GalNAc
Method in brief: as §1

[15] = target: GalNAc(a1-3)GalNAc(b1-3)Gal(a1-4)Gal(b1-4)Glc
Method in brief: as §1

[16] = target: GalNAc(a1-3)GalNAc(b1-3)Gal(a1-4)Gal(b1-4)GlcNAc
Method in brief: as §1

GalNAc(b1-3)Gal = target: GalNAc(b1-3)Gal
Method in brief: as §1

[17] = target: GalNAc(b1-3)Gal(a1-4)Gal(b1-4)GlcNAc
Method in brief: as §1

[18] = target: GalNAc(b1-3)Gal(a1-4)Gal(b1-4)GlcNAc(b1-3)Gal(b1-4)Glc
Method in brief: as §1

[19] = target: GalNAc(b1-3)Gal(a1-6)Gal(b1-4)Glc
Method in brief: as §1

GalNAc(b1-3)GalNAc = target: GalNAc(b1-3)GalNAc
Method in brief: as §1

GalNAc(b1-3)GlcNAc = target: GalNAc(b1-3)GlcNAc
Method in brief: as §1

GalNAc(b1-4)Gal(b1-4)Glc = target: GalNAc(b1-4)Gal(b1-4)Glc
Method in brief: as §1

GalNAc(b1-4)GlcNAc = target: GalNAc(b1-4)GlcNAc
Method in brief: as §1

B1: Thrombomodulin (Mus musculus) (protein)
chain: ALAKLQPTGSQCVEHECFALFQGPATFLDASQACQRLQGHLMTVRSSVAADVISLLLSQSSMDLGPWIGLQLPQGCDDPVHLGPLRGFQWVTGDNHTSYSRWARPNDQTAPLCGPLCVTVSTATEAAPGEPAWEEKPCETETQGFLCEFYFTASC
glycan array binding signal (z-score) [1]: -0.053
glycan array binding signal (z-score) [2]: 0.126
glycan array binding signal (z-score) [3]: -0.151
glycan array binding signal (z-score) [4]: -0.205
glycan array binding signal (z-score) [5]: -0.247
glycan array binding signal (z-score) [6]: -0.029
glycan array binding signal (z-score) [7]: -0.219
glycan array binding signal (z-score) [8]: 0.062
glycan array binding signal (z-score) [9]: -0.326
glycan array binding signal (z-score) [10]: -0.307
glycan array binding signal (z-score) (Gal(b1-4)GlcNAc6P): -0.055
glycan array binding signal (z-score) (Gal(b1-6)Gal): -0.119
glycan array binding signal (z-score) (Gal3S(b1-3)GalNAc): 0.065
glycan array binding signal (z-score) (Gal3S(b1-3)GlcNAc): -0.007
glycan array binding signal (z-score) [11]: -0.25
glycan array binding signal (z-score) (Gal3S(b1-4)Glc): 0.348
glycan array binding signal (z-score) (Gal3S(b1-4)Glc6S): -0.028
glycan array binding signal (z-score) (Gal3S(b1-4)GlcNAc): -0.079
glycan array binding signal (z-score) [12]: 0.12
glycan array binding signal (z-score) [13]: -0.174
glycan array binding signal (z-score) [14]: 0.146
glycan array binding signal (z-score) (Gal3S4S(b1-4)GlcNAc): -0.106
glycan array binding signal (z-score) (Gal3S6S(b1-4)GlcNAc): -0.189
glycan array binding signal (z-score) (Gal3S6S(b1-4)GlcNAc6S): 0.01
glycan array binding signal (z-score) (Gal4S(b1-4)GlcNAc): -0.066
glycan array binding signal (z-score) (Gal4S6S(b1-4)GlcNAc): 0.303
glycan array binding signal (z-score) (Gal6P(b1-4)GlcNAc): -0.432
glycan array binding signal (z-score) (Gal6S(b1-3)GlcNAc): -0.18
glycan array binding signal (z-score) (Gal6S(b1-3)GlcNAc6S): -0.035
glycan array binding signal (z-score) (Gal6S(b1-4)Glc): -0.113
glycan array binding signal (z-score) (Gal6S(b1-4)Glc6S): 0.023
glycan array binding signal (z-score) (Gal6S(b1-4)GlcNAc): 0.002
glycan array binding signal (z-score) (Gal6S(b1-4)GlcNAc6S): -0.283
glycan array binding signal (z-score) (GalNAc(a1-3)Gal): 0.15
glycan array binding signal (z-score) (GalNAc(a1-3)GalNAc): -0.213
glycan array binding signal (z-score) [15]: -0.248
glycan array binding signal (z-score) [16]: 0.145
glycan array binding signal (z-score) (GalNAc(b1-3)Gal): -0.296
glycan array binding signal (z-score) [17]: -0.379
glycan array binding signal (z-score) [18]: -0.108
glycan array binding signal (z-score) [19]: -0.441
glycan array binding signal (z-score) (GalNAc(b1-3)GalNAc): -0.316
glycan array binding signal (z-score) (GalNAc(b1-3)GlcNAc): -0.37
glycan array binding signal (z-score) (GalNAc(b1-4)Gal(b1-4)Glc): -0.054
glycan array binding signal (z-score) (GalNAc(b1-4)GlcNAc): 0.33
